# Source: PMC12040169 (PLOS Biology, 2025)
# This is one part of the list.
# System: T1, C. trachomatis L2/434/Bu expressing GFP (CTL2-GFP)
# T1 construct: L2/434/Bu GFP intracellular growth in HeLa cells
# Parameters: species or system HeLa; C. trachomatis total inclusion area by high-content imaging, normalised to DMSO
# Details: total inclusion area; 28.5 h, 10 µM; inhibitor
# In short: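 Host cell viability was gauged from Hoechst-stained nuclei counts, while chlamydial growth was taken from total inclusion area and inclusion number per well. Cells were fixed and imaged by high-content microscopy once bulk GFP and resorufin fluorescence had been measured.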
row,SMILES,% of control remaining
1,Cn1cc(CC2CCN(Cc3ccncc3)C2)cn1 (stereo not shown) [CBK304796],66.0385
2,CCC1CCCCN1C(=O)c1cccc(C)n1 (stereo not shown) [CBK076750],99.2062
3,Cc1cc2c(o1)c1cnn(CC(=O)N(C(C)C)C(C)C)c(=O)c1n2C [CBK282392],97.7372
4,CC(c1ccco1)N(C)Cc1c[nH]nc1-c1ccc(O)cc1 (stereo not shown) [CBK283303],94.5586
5,O=C(CCCN1C(=O)/C(=C/c2ccc3c(c2)OCO3)SC1=S)Nc1ccc([N+](=O)[O-])cc1 [CBK264623],90.5912
6,Nc1ncc(-c2cccc(Br)c2)nc1NCCCO [CBK063603],71.1329
7,CC1=NN(c2ccc([N+](=O)[O-])cc2)C(=O)/C1=C/NCc1ccc(S(N)(=O)=O)cc1 [CBK262670],105.586
8,Cc1cccc(-c2csc3c(=O)[nH]c(N4CCC(C(=O)N5CCOCC5)CC4)nc23)c1 [CBK215644],128.168
9,COc1cc(/C=N/c2ccc(/N=C/c3cc(Br)c(O)c(OC)c3)cc2)cc(Br)c1O [CBK261843],107.569
10,Cc1ccc(CC(C#N)Sc2nc(CN3CCOCC3)nc3ccccc23)cc1 (stereo not shown) [CBK298321],101.406
11,O=C(CC1NCCNC1=O)Nc1ccc2c(c1)OCCO2 (stereo not shown) [CBK266837],92.6667
12,COc1ccc(CCNC(=O)C(=O)Nc2ccc(C)c(C)c2)cc1 [CBK263222],71.3404
13,c1ncc(OC2CCN(CCN3CCOCC3)C2)nc1OCCN1CCOCC1 (stereo not shown) [CBK084492],73.5431
14,COCCn1nnnc1C(c1cc2cc(C)cc(C)c2[nH]c1=O)N1CCOCC1 (stereo not shown) [CBK068815],90.4383
15,CCN(CC(O)COc1ccc2ccccc2c1)S(=O)(=O)O (stereo not shown) [CBK261113K],100.923
16,COc1ccc(NC2=NN(c3ccccc3)C(=O)C2)cc1 [CBK288085],90.7951
17,Cc1noc(CN2CCN(c3ccc4nnc(C(F)(F)F)n4n3)CC2)n1 [CBK305566],82.5836
18,O=C(Cn1cccn1)Nc1ccc2c(c1)CN(Cc1ccccc1)C2 [CBK281829],109.347
19,COc1ccc(CCN2C(=O)N[C@@H](CCC(=O)NC3CC3)C2=O)cc1 [CBK288001],72.7106
20,COc1ccc(Nc2cc(-c3cccc(N)c3)ncn2)c(C)c1 [CBK091035],126.845
21,COc1ccccc1CN(CC(C)(C)CN)C(=O)Nc1ccc(C)c([N+](=O)[O-])c1 [CBK026816C],78.0024
22,CCOc1cc2c(cc1OCC)C(c1ccc(OC)c(O)c1)NCC2 (stereo not shown) [CBK074443C],80.4336
23,Cc1noc(C)c1S(=O)(=O)NCc1ccc(C(F)(F)F)c(F)c1 [CBK062112],80.9814
24,CN1CCN(CCC(=O)N/N=C/c2ccsc2)CC1 [CBK261505],111.7
25,O=C(Cc1c[nH]c2ccccc12)N1CCC2(CCN(C(=O)c3ccc4[nH]c(=O)[nH]c4c3)C2)C1 (stereo not shown) [CBK131452],112.529
26,O=C(NCc1cccnc1)C1CCCN(c2nc3c(-c4ccccc4)csc3c(=O)[nH]2)C1 (stereo not shown) [CBK215492],91.8726
27,Cc1cc(C(=O)Nc2sc(C)c(C)c2C(=O)NCc2cccnc2)no1 [CBK268134],86.4988

row,SMILES,% of control remaining
1,O=S(=O)(NCc1cccc(Cl)c1)c1csc2ccnc(N3CCNCC3)c12 [CBK045595C],78.3357
2,CCCS(=O)(=O)NC(C)c1cnn(-c2ccc(OC)cc2)c1C (stereo not shown) [CBK307319],79.6463
3,CC(C)c1ccc(S(=O)(=O)N2CCN(c3ccc(C#N)cc3)CC2)cc1 [CBK044404],61.9265
4,Cc1ccccc1-c1ccccc1CC1(C(N)=O)CCN(C(=O)c2cccc(F)c2)CC1 [CBK285726],105.44
5,CCn1c(CC2CCN(C(=O)CCn3cc(C)cn3)CC2)nn(C)c1=O [CBK307584],85.1127
6,CCCc1nn(CC(=O)NC2CC2)c(=O)c2cc3ccsc3n12 [CBK284146],92.1312
7,Cn1cc(C2CNCCN2C(=O)c2coc3ccccc23)cn1 (stereo not shown) [CBK304270C],71.6732
8,Cc1oc2ccc(O)cc2c1C(=O)N(C)CCN1CCCCC1 [CBK282158],83.3619
9,CCOc1cccc(NC(=O)/C(C#N)=C\c2cc(C)n(-c3ccc4c(c3)OCO4)c2C)c1 [CBK263191],90.463
10,CS(=O)(=O)Nc1cccc(C2=NN(C(=O)CCC(=O)O)C(c3cccc(F)c3)C2)c1 (stereo not shown) [CBK268804],129.097
11,CC(CNS(=O)(=O)c1ccc(N2CCCC2=O)cc1)Cn1cccn1 (stereo not shown) [CBK304656],104.407
12,Cc1ccc(-n2c(=O)[nH]cc(C(=O)Nc3cccc(Cl)c3C)c2=O)cc1C [CBK287551],96.456
13,c1csc(N2CCCN(c3nccn4cnnc34)CC2)n1 [CBK305190],1.972
14,COc1ncc(-c2ccc(NCCn3cc[nH]c3=O)nc2)c(OC)n1 [CBK037719],101.979
15,CC1(C)CC(N(Cc2ccccc2)C(=O)Cc2ccco2)CCO1 (stereo not shown) [CBK019561],82.0529
16,O=[N+]([O-])c1ccc2[nH]c3c(c2c1)CCCC3NC1CCN(CCc2ccccc2)CC1 (stereo not shown) [CBK262874],7.552
17,Cc1cccc(C(=O)Nc2nc3ccc(S(C)(=O)=O)cc3s2)c1 [CBK287323],116.488
18,Cc1cccc(S(=O)(=O)N2CCN(C)CC2)c1 [CBK097893],99.7825
19,CCOC(=O)c1noc2nc(C)n(Cc3nc(-c4ccccc4)oc3C)c(=O)c12 [CBK294400],107.12
20,Cc1cc(Cl)c(S(=O)(=O)Nc2cccnc2)cc1OCC(N)=O [CBK266523],125.528
21,COc1ccccc1CN1CC[C@H]2[C@@H](C1)[C@H](c1ccsc1)CN2C(=O)c1ccccc1 [CBK285617],75.7793
22,O=C(Nc1ccc(-c2nc3ccc(-c4nc5ccc(NC(=O)c6cccc7ccccc67)cc5[nH]4)cc3[nH]2)cc1)c1cccc2ccccc12 [CBK261161],95.521
23,Cc1nn(C)cc1S(=O)(=O)N1CCn2cccc2C1C(C)C (stereo not shown) [CBK282787],87.7544
24,COc1cc(/C=C2\SC(=S)N(c3cccc(C(=O)O)c3)C2=O)cc([N+](=O)[O-])c1O [CBK265281],99.2409
25,O=C(NCc1cccc2ccccc12)N1CCCCC1CO (stereo not shown) [CBK156167],98.0988
26,COc1ccc(-c2nnc3c4ccccc4c(C)nn23)cc1S(=O)(=O)NC(C)c1ccccc1 (stereo not shown) [CBK266605],121.571
27,Cc1nn(-c2ccc(F)cc2)c2[nH]c(=O)c(CNC(C)(C)C)cc12 [CBK283120],103.243

row,SMILES,% of control remaining
1,COc1cc(C)c(Cl)cc1S(=O)(=O)NCCCN1CCOCC1 [CBK269044],84.2319
2,Cc1cccc(C)c1NC(=O)CC(CN1CCN(Cc2c(C)noc2C)CC1)C(=O)O (stereo not shown) [CBK286715],55.4718
3,O=C(OCc1ccccc1)N1CCN(C(=O)c2cc3cc(Br)ccc3[nH]2)CC1 [CBK154991],56.8046
4,O=C(Cc1c[nH]c2ccccc12)N1CCC2(CCCN(Cc3c(F)cccc3F)C2)C1 (stereo not shown) [CBK132031],92.1182
5,CC(=O)OCC(=O)N1CCC(N(C)Cc2ccc(-c3ccc(S(C)(=O)=O)cc3)nc2)CC1 [CBK165268],21.0157
6,O=C(Nc1ccc(O)cc1C(=O)O)c1ccc2c(c1)C(=O)N(Cc1ccco1)C2=O [CBK267418],92.9444
7,N=C(N)Nc1nc(-c2ccccc2)c2cc(F)ccc2n1 [CBK267350],19.699
8,CC(C)(C)OC(=O)N1CCC(OCc2cn(-c3ccc(S(C)(=O)=O)cc3)nn2)CC1 [CBK149478],87.9033
9,CCCCNc1cc(C)nc2c(-c3ccccc3)cnn12 [CBK287792],113.282
10,O=S(=O)(c1csc2ccccc12)N1CCOCC1 [CBK062401],103.158
11,OCCC1CCCCN1c1cncc(C2CCOC2)n1 (stereo not shown) [CBK066127],68.2146
12,O=C(O)/C=C/C(=O)NNC(=O)c1ccccc1O [CBK261789],110.262
13,Cn1cncc1CN(CCCn1ccnc1)Cc1ccccc1F [CBK282960],87.0549
14,Cc1cc(C)c2sc(NC(=O)c3ccccc3)nc2c1 [CBK287614],115.466
15,CC(=O)N1CCOC(CNc2nc(C(C)(C)C)nc3c2cnn3C)C1 (stereo not shown) [CBK307469],52.1614
16,Cc1nnc(Sc2cccc(C(F)(F)F)n2)s1 [CBK115222],104.4
17,COc1cccc(CNCCN2CCOCC2)c1O [CBK278183C],106.107
18,CC(O)CNc1nccnc1-c1cccc(CO)c1 (stereo not shown) [CBK037056],105.805
19,O=C1CCCN1CCCNc1nccnc1-c1ccc(CO)cc1 [CBK036860],54.6859
20,Nc1nncn1C(=O)c1ccccc1SCc1ccccc1 [CBK270120],86.5152
21,COc1ccc(NC(=O)Nc2cc3cccnc3c(Br)n2)c(C)c1 [CBK063294],108.619
22,Cc1ccc(S(=O)(=O)CCc2noc(-c3n[nH]c4ccccc34)n2)cc1 [CBK288598],81.2154
23,CN1CCN(c2nc(-c3cccc4ncccc34)cnc2N)CC1 [CBK063465],115.529
24,CN(C)C(=O)CSc1cnc2ccccc2n1 [CBK086626],103.339
25,CN1CCCC(NC(=O)CCCOc2ccccc2F)C1 (stereo not shown) [CBK282072],85.9871
